Source: PubChem BioAssay (NCI)
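Compound exposure: 48 hours, 5 concentrations, 96-well plates. GI50: concentration for 50% inhibition of growth. The concentration for full growth arrest is given as TGI.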

Test system: NCI-H322M lung
Experiment: inhibition of tumour cell growth, NCI panel, 48 h

SMILES | GI50 | TGI
O=C(Nc1ccc(Cl)cc1)Nc1nc2ccc([N+](=O)[O-])cc2s1 | 936 nM | 3450 nM
O=C1c2c(c3c4cc(Br)ccc4[nH]c3c3ccc4ccccc4c23)C(=O)N1CCN1CCNCC1 | 2100 nM | 5090 nM
